Where a name gives a salt, the structure may show the parent alone. Read-outs that look alike come from different tables or passages of the source.
Target: human α2δ-1 subunit of Cav2.2 calcium channel (Homo sapiens, UniProt P54289)
Assay: Binding assay to human α2δ-1 subunit of Cav2.2 calcium channel ([3H]-Gabapentin displacement)
Method: Binding assay to human α2δ-1 subunit of Cav2.2 calcium channel.
Human α2δ-1 enriched membranes (2.5 µg) were incubated with 15 nM of radiolabeled [3H]-Gabapentin in assay buffer containing Hepes-KOH 10 mM, pH 7.4.
NSB (non specific binding) was measured by adding 10 µM pregabalin. The binding of the test compound was measured at either one concentration (% inhibition at 1 or 10 µM) or five different concentrations to determine affinity values (Ki). After 60 min incubation at 27 °C, binding reaction was terminated by filtering through Multiscreen GF/C (Millipore) presoaked in 0.5 % polyethyleneimine in Vacuum Manifold Station, followed by 3 washes with ice-cold filtration buffer containing 50 mM Tris-HCI, pH 7.4.
Filter plates were dried at 60 °C for 1 h and 30µl of scintillation cocktail were added to each well before radioactivity reading.
Readings were performed in a Trilux 1450 Microbeta radioactive counter (Perkin Elmer).

[1] = read-out: Binding α2δ-1, Table 2, human α2δ-1 enriched membranes, 15 nM [3H]-Gabapentin, 60 min at 27 °C

Chain of human α2δ-1 subunit of Cav2.2 calcium channel (P54289 25-1103): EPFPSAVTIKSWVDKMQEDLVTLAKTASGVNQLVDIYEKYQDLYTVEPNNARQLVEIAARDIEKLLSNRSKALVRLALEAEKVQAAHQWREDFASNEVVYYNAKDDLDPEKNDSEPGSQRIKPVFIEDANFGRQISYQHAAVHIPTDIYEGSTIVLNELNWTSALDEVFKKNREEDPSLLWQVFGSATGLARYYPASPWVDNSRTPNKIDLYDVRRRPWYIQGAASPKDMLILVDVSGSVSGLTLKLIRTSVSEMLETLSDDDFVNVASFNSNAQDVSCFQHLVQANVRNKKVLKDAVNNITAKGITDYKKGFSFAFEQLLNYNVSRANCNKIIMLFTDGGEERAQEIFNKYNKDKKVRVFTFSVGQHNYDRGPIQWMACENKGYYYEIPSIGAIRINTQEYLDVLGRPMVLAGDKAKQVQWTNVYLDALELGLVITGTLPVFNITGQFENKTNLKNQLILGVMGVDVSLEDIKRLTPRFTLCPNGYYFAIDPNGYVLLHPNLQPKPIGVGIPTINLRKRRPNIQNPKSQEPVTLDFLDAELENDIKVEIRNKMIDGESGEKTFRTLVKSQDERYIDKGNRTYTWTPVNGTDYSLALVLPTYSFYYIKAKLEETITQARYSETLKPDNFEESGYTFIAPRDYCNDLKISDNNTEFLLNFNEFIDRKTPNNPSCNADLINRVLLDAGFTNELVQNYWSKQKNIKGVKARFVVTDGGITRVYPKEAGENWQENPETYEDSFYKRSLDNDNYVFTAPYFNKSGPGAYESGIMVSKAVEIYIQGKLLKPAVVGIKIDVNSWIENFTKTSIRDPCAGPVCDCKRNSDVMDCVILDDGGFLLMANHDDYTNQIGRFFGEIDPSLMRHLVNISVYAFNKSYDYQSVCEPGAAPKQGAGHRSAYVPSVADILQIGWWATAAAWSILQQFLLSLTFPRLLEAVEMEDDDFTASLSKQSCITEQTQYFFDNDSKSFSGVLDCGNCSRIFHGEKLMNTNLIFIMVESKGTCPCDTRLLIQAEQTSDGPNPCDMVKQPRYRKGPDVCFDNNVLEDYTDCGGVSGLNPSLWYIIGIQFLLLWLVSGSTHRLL

SMILES | Ki | Ki [1]
CC[C@@H](c1ccccc1)[C@@H](CNC)C(=O)N1CCC(NC)(c2ccc(F)cc2)CC1 [Example 65, (2S,3R)-1-(4-(4-fluorophenyl)-4-(methylamino)piperidin-1-yl)-2-((methylamino)methyl)-3-phenylpentan-1-one] | < 500 nM | < 500 nM
CC[C@@H](c1cccc(Cl)c1)[C@@H](CN)C(=O)N1CCC(c2ccccc2)(N(C)C)CC1 [Example 66, (2S,3R)-2-(aminomethyl)-3-(3-chlorophenyl)-1-(4-(dimethylamino)-4-phenylpiperidin-1-yl)pentan-1-one] | < 500 nM | < 500 nM
CC[C@@H](c1cccc(Cl)c1)[C@@H](CNC)C(=O)N1CCC(c2ccccc2)(N(C)C)CC1 [Example 67, (2S,3R)-3-(3-chlorophenyl)-1-(4-(dimethylamino)-4-phenylpiperidin-1-yl)-2-((methylamino)methyl)pentan-1-one] | < 500 nM | < 500 nM
CC[C@@H](c1cccc(Cl)c1)[C@@H](CNC)C(=O)N1CCC(NC)(c2ccc(F)cc2)CC1 [Example 69, (2S,3R)-3-(3-chlorophenyl)-1-(4-(4-fluorophenyl)-4-(methylamino)piperidin-1-yl)-2-((methylamino)methyl)pentan-1-one] | < 500 nM | < 500 nM
CNCC(Cc1ccccc1)C(=O)N1CCC(c2ccccc2)(N(C)C)CC1 (centres unmarked) [Example 70, 2-benzyl-1-(4-(dimethylamino)-4-phenylpiperidin-1-yl)-3-(methylamino)propan-1-one] | 500 to 5000 nM | 500 to 5000 nM
Cc1ccccc1CC(CN)C(=O)N1CCC(c2ccccc2)(N(C)C)CC1 (centres unmarked) [Example 75, 3-Amino-1-(4-(dimethylamino)-4-phenylpiperidin-1-yl)-2-(2-methylbenzyl)propan-1-one dihydrochloride] | 500 to 5000 nM | 500 to 5000 nM
CN(C)C1(c2ccccc2)CCN(C(=O)C(CNCc2ccccc2)Cc2ccccc2)CC1 (centres unmarked) [Example 76, 2-Benzyl-3-(benzylamino)-1-(4-(dimethylamino)-4-phenylpiperidin-1-yl)propan-1-one dihydrochloride] | 500 to 5000 nM | 500 to 5000 nM
CNC[C@H](Cc1ccccc1)C(=O)N1CCC(c2ccccc2)(N(C)C)CC1 [Example 79, (S)-2-Benzyl-1-(4-(dimethylamino)-4-phenylpiperidin-1-yl)-3-(methylamino)propan-1-one dihydrochloride] | 500 to 5000 nM | 500 to 5000 nM
CN(C)C1(c2ccccc2)CCN(C(=O)[C@H](CN)[C@H]2CCc3ccccc32)CC1 [Example 82, (S)-3-amino-2-((R)-2,3-dihydro-1H-inden-1-yl)-1-(4-(dimethylamino)-4-phenylpiperidin-1-yl)propan-1-one] | 500 to 5000 nM | 
CNC[C@@H](C(=O)N1CCC(c2ccccc2)(N(C)C)CC1)[C@H](C)c1ccccc1 [Example 85, (2S,3S)-1-(4-(Dimethylamino)-4-phenylpiperidin-1-yl)-2-((methylamino)methyl)-3-phenylbutan-1-one] | > 5000 nM | > 5000 nM
CNC[C@H](C(=O)N1CCC(c2ccccc2)(N(C)C)CC1)[C@@H](C)c1ccccc1 [Example 86, (2R,3R)-1-(4-(dimethylamino)-4-phenylpiperidin-1-yl)-2-((methylamino)methyl)-3-phenylbutan-1-one] | < 500 nM | < 500 nM
CNC[C@H](C(=O)N1CCC(c2ccccc2)(N(C)C)CC1)[C@H](C)c1ccccc1 [Example 87, (2R,3S)-1-(4-(dimethylamino)-4-phenylpiperidin-1-yl)-2-((methylamino)methyl)-3-phenylbutan-1-one] | > 5000 nM | > 5000 nM

From EP3858439A1 (priority 2020, dated 2021)
